According to article PMC4336329 (PLoS ONE, 2015):
The campaign covered roughly 310,000 compounds. About 14,000 (4.5%) showed an effect of 50% or more. The effect is printed as a negative number. The list shows a part of the results. Where a SMILES comes first, the peptide text is derived from it. [ ]: non-standard residue; d: D form. The star is where a group is joined. ξ: configuration not given here. Cbz = O=C(OCc1ccccc1)*; OBn = c1ccc(CO*)cc1; ξP = O=C(O)C1CCCN1

Biological target: human ether-à-go-go-related gene (hERG) potassium channel (human, UniProt Q12809)
Experiment: primary screen, population patch clamp on CHO cells stably expressing hERG
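Note: peak tail current of the secondary pulse compared with the same well before compound.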

human ether-à-go-go-related gene (hERG) potassium channel, sequence (Q12809 whole entry, looked up): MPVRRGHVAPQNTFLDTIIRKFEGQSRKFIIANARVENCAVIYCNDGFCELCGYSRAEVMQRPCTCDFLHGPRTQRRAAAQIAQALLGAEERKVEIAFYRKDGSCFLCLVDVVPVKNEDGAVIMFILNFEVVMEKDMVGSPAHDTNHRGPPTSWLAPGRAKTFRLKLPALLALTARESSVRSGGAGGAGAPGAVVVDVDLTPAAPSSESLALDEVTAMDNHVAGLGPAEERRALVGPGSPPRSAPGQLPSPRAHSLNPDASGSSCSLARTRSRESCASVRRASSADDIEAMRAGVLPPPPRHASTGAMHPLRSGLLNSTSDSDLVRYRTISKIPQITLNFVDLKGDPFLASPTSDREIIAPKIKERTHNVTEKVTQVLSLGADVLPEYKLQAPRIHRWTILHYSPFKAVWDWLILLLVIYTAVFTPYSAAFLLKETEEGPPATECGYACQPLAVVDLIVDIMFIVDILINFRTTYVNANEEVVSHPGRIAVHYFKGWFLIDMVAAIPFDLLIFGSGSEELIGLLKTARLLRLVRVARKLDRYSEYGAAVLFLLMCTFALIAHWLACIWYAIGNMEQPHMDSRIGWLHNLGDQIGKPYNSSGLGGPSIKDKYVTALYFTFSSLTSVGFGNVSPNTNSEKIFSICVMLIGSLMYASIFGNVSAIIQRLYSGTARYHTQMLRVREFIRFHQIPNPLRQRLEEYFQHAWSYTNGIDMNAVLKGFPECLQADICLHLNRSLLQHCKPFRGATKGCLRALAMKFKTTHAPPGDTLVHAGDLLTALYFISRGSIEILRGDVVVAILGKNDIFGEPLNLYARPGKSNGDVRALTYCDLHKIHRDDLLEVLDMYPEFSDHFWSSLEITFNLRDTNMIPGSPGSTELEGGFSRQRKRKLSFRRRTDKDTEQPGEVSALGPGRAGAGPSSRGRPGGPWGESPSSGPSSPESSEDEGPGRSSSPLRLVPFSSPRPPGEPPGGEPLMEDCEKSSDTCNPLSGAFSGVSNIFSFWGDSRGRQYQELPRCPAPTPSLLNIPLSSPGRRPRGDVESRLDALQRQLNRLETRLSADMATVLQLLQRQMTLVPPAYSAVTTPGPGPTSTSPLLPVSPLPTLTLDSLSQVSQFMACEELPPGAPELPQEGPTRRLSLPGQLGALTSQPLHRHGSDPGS

| SMILES | hERG current change (%, negative = inhibition) at 10uM |
| --- | --- |
| O=C(NCC1CCCO1)c1ccc(NC(=O)C2CC=CCC2C(=O)O)cc1 (centres unmarked) | 12.2% |
| COC(=O)c1cn(-c2ccccc2)nc1C(=O)OC | -9.6% |
| Cc1cccc(CCNC(=O)c2cc(S(=O)(=O)N3CCCCC3)c[nH]2)c1 | -15.6% |
| O=C(CN1CCN(Cc2ccc(Cl)cc2)CC1)N/N=C/c1ccncc1 | -80.1% |
| O=C(O)Cn1nnnc1-c1ccc(F)cc1 | -5.4% |
| COc1cccc(-c2ncc3ccccc3c2COC(=O)c2ccc(C(F)(F)F)cc2)c1 | 13.6% |
| Cc1ccc(C(=O)N2CCC(C(=O)NC3CCCC3)CC2)cc1 | 4.81% |
| O=C(CSc1nnc(-c2ccco2)o1)NC(=O)C1COc2ccccc2O1 (centres unmarked) | -4.34% |
| O=C(CCCC(=O)N1CCN(c2ccccc2F)CC1)c1ccccc1 | -10.7% |
| COCC(=O)N1CCC(n2nccc2NC(=O)c2ccccc2OC)CC1 | -1.85% |
| CCOC(=O)[C@H](CCc1ccccc1)N[C@@H](C)C(=O)N1[C@H](C(=O)O)C[C@@H]2CCC[C@@H]21 | 10.7% |
| O=C(COC(=O)c1ccc(NS(=O)(=O)c2cccs2)cc1)NCC1CCCO1 (centres unmarked) | 4.94% |
| O=C(CNC(=O)OCc1ccccc1)NCC(=O)N1CCCC1C(=O)OCc1ccccc1 (stereo not drawn) (Cbz-Gly-Gly-[ξP]-OBn) | -19.3% |
| O=C(O)CCC(=O)N1N=C(c2cccs2)CC1c1cn(-c2ccccc2)nc1-c1ccccc1 (centres unmarked) | -5.28% |
| Cc1nc2ccc(C(=O)Nc3ccccc3Cl)cc2s1 | 10.5% |
| CCN(CC)S(=O)(=O)c1ccc(N2CCCC2)c(NC(=O)C2CSC3(C)CCC(=O)N23)c1 (centres unmarked) | -24.9% |
| O=C(C/C=N/OCc1ccc(Cl)cc1Cl)c1ccc(Cl)cc1 | -3.48% |
| COc1ccc(CN2C(=O)CCC(C(=O)O)C2c2ccccc2)cc1 (centres unmarked) | 25.6% |
| S=c1[nH]nc(Cn2nnc3ccccc32)n1-c1ccc(Cl)cc1 | 17.2% |
| CCCOC(=O)c1[nH]c2c(c1C)C(=O)CC(c1ccc(OC)c(OC)c1)C2 (centres unmarked) | -4.07% |
| O=C(/C=C/c1ccccc1)CC(O)(c1ccccc1)C(F)(F)C(F)F (centres unmarked) | 8.24% |
| CC(=O)Nc1cc(C(=O)N2CCCC2)ccc1Sc1ccc(C)cc1 | -30.5% |
| CCOCCCNC(=O)c1cn(CC)c2ccc(S(=O)(=O)N(C)C3CCCCC3)cc2c1=O | -55.7% |
